# The supplement of paper PMC3334620
# The full ranking holds about 33,000 sequences; the median of “E-score (-0.5 to 0.5)” is about -0.054, and the highest 2% start at about 0.39. Some of the results follow.
# Target: Ylr278c (UniProt Q05854)
# Test: PBM E-score (8-mer binding enrichment) (E-score (-0.5 to 0.5)); higher = stronger / more preferred TF binding; most listed sequences are background and not binding sites
# Settings: protein concentration: 200 nM; construct: GST-DNA-binding domain
# In short: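 E-scores (a modified Wilcoxon-Mann-Whitney statistic) were assigned by the Universal PBM Analysis Suite to every ungapped eight-base word pooled with its reverse complement. The input came from universal all-10-mer Agilent arrays made double-stranded by primer extension and probed with GST-tagged yeast transcription factors at about 100-200 nM. Fluorescent anti-GST detected bound protein, and masliner normalised the scans.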
row,Sequence,PBM E-score
1,ATGCCGCG,0.304
2,GAGGTAGA,-0.0204
3,CTAGACTA,-0.137
4,GCCAGTAC,-0.186
5,CTAGGGGC,-0.114
6,CTTAAACA,0.00733
7,GACTGGAC,-0.143
8,ACTACTGG,-0.252
9,ATCGAGGG,0.031
10,CTGTCAGC,-0.0314
11,CGCAACCC,0.139
12,AATTGGCT,-0.082
13,CGTTTAAC,-0.174
14,ACTAAACT,-0.118
15,CGAGCTAG,0.0909
16,ATGACAAA,-0.134
17,CCTGAGAG,-0.192
18,AAGCCACC,-0.238
19,ACCCGTTC,0.0613
20,ATCGCGAC,0.0412
21,AGTTCGCA,-0.00335
22,AACCGCAT,0.0694
23,CCCAACGG,0.128
24,ATCTAACC,0.0187
25,AGAGGACA,-0.169

row,Sequence,PBM E-score
1,CGAAGGCG,0.182
2,GTGTCATA,-0.106
3,GACAGGCC,-0.0794
4,GCGGCAGA,0.121
5,CGAAAGGC,0.0796
6,AAAATTGA,-0.0482
7,AGTTTGCC,0.0328
8,CCCTACCA,-0.212
9,TGGTCTAA,-0.128
10,CTACTGTA,-0.138
11,CCGAGCCC,0.183
12,CGCCGGTC,0.388
13,ATAGTTAA,-0.0579
14,GATTGTGA,0.0581
15,GACAGCTC,-0.0718
16,GTTGAGCA,-0.0774
17,GAAAGGAC,0.097
18,CGAAGCGC,0.197
19,TACTCTCA,-0.303
20,TAAGCGGA,0.327
21,CGTTAGCC,0.0119
22,CAGAACTA,-0.15
23,CCCAACCC,0.051
24,ACGCCACT,-0.127
25,AGCTACCG,-0.0672

row,Sequence,PBM E-score
1,AGTGTACG,-0.0975
2,ATCCAATA,-0.0452
3,CCGTTCTC,0.0932
4,AAATAGGA,-0.00548
5,AACTGCTG,-0.135
6,AGAGGGTA,-0.309
7,CGCAGCCG,0.189
8,GATAATTA,0.102
9,CACTGACG,-0.143
10,CGCTCAAA,-0.0906
11,GTCACAAA,-0.086
12,AATTCTCT,-0.113
13,CCCCGGAG,0.48
14,CAGTTTGA,-0.101
15,GCCGCTCC,0.234
16,ACACCTGT,-0.0112
17,CGCTGCAA,-0.109
18,AAGGCGCT,-0.0197
19,CGCTGACG,0.0398
20,TATGTGCA,-0.173
21,TATAAACA,-0.0892
22,GTCTGCCA,-0.173
23,ACGAAACA,-0.0403
24,GTCTCCGA,0.417
25,ACTGGCCA,-0.131

row,Sequence,PBM E-score
1,AAATTAAA,0.073
2,AATCTGCC,0.0735
3,GCATCAGA,-0.123
4,GTACCCTA,-0.192
5,AACGTCTT,-0.233
6,CTGCAAGC,-0.0895
7,CCAGCAGA,-0.158
8,CATCGGAG,0.457
9,CTGATCAA,-0.101
10,CCAAAAGG,-0.344
11,GTTGATCA,-0.101
12,GAATAGAC,-0.113
13,GTGGGTGA,0.0373
14,ACTGATGA,-0.301
15,GAAACCGA,0.165
16,CCTCAATC,0.0572
17,ACATAATA,-0.0789
18,AATCTAGG,-0.199
19,ACAGTGTG,-0.322
20,AGCGTGTA,-0.177
21,CAAAAGCG,0.0203
22,GGAATTCA,0.183
23,ACAAAACT,-0.148
24,CACGGGGG,0.0162
25,TGACCTCA,-0.211

row,Sequence,PBM E-score
1,CTTGGCAA,-0.332
2,CAATGCTG,-0.108
3,GGAGTACA,0.215
4,CAGATCTG,-0.107
5,AATTAAGT,0.116
6,CGACAAAC,0.0337
7,AATTCAGA,-0.119
8,CGTCGTAC,-0.125
9,ACTGGAGC,-0.117
10,GGCACGAA,-0.132
11,GGGACATA,0.0665
12,ATCTCATG,-0.182
13,CCTTGTCG,-0.211
14,AGGGCTCC,0.0646
15,AACTCAAG,-0.096
16,AGTTGGTA,-0.238
17,ACTTGGCG,-0.165
18,GCGACCCC,0.156
19,CGAAAGCG,-0.00844
20,AATGGAAC,-0.032
21,AAGAATAG,-0.186
22,ACCAGAGC,0.0145
23,GTCGTATA,-0.188
24,AAGGAGCT,-0.23
25,CTACATGC,-0.198

row,Sequence,PBM E-score
1,ACTTGGAA,-0.162
2,ATCTGGCA,-0.136
3,CCAGACGA,-0.149
4,ACGGCAAG,-0.0614
5,AATGCCAC,-0.107
6,AACAGACG,-0.0792
7,AAACTTCG,-0.0275
8,GCAAAGAC,0.00158
9,ACATCGGC,0.233
10,GCATTCAC,0.193
11,ACAATAGT,-0.073
12,AAGAATAA,-0.102
13,GGTCGAAA,-0.0548
14,GACCCTAC,-0.0173
15,CGCGGTAA,0.26
16,AGGGCCTC,-0.149
17,AAGGCTGT,-0.104
18,GGTACTCA,-0.0728
19,ATAGCGAT,-0.201
20,CCCTTCAC,-0.188
21,GGTTCGTA,-0.0544
22,GCACCATA,-0.186
23,CTGCCGTA,-0.117
24,TATCACAA,-0.153
25,CTTTTGTC,0.11

row,Sequence,PBM E-score
1,CATTTTAG,0.135
2,CGCTCCAC,-0.00347
3,ACAGCCTC,-0.112
4,TCTTTACA,-0.0334
5,TAGAGCAA,-0.333
6,ATTCGAAG,-0.0406
7,AGCTAAAA,0.0127
8,ATGGCATG,-0.026
9,TGATCGAA,-0.163
10,GTCGGCGA,0.243
11,CAGCTCAG,-0.162
12,AATGGTGT,-0.119
13,ATATTTCC,0.33
14,CCTGTCCC,-0.128
15,TATGCCGA,0.276
16,CGTGTCCA,-0.122
17,AGAACCTG,-0.28
18,ATGTCGTA,-0.292
19,GATTAAAC,0.0975
20,TAACGATA,-0.124
21,AGGGCGGA,0.385
22,ACCAAGTG,-0.243
